Hit rate of the full screen: of about 7,900 compounds, about 400 (5.1%) showed an effect of 50% or more. The list shows a part of the results.

Data on 124 compounds can be found in article PMC9574860, “Chemical Toolkit for PARK7: Potent, Selective, and High-Throughput” (Journal of Medicinal Chemistry, 2022).

Parkinson's disease protein 7 (PARK7/DJ1), sequence (Q99497 whole entry, looked up, the tested form may be a part): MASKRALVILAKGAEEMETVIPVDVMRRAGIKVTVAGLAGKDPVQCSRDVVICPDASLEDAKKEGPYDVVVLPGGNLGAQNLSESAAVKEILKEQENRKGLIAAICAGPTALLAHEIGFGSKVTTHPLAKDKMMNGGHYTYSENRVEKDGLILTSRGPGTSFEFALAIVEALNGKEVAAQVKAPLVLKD

The target of the assay is Parkinson's disease protein 7 (PARK7/DJ1) (human, UniProt Q99497). Nature of the assay: primary screen, percent inhibition; read as competition with a fluorescent probe by fluorescence polarization; higher = more effect of the substance. The following applies: 100 µM. Summed up:
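Covalent fragments at 100 μM final were incubated 2 h with 0.2 μM PARK7, then 20 nM probe JYQ-107 added for a further 2 h. Fluorescence polarization read at 480/520 nm; relative FP loss versus reference controls gave remaining enzyme activity.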
Turning to `CC1CC(Sc2nncn2-c2ccccc2F)C(=O)O1` (stereo not shown), the Inhibition % came to 0.0122%.
As for `CC(C)(C)SCCOc1cccnc1C#N`, the figure is 9.17%; as for `C=CC(=O)NCc1oc(C(C)C)nc1C`, 13.4%.
As for `COc1ccc(CNS(=O)(=O)C=Cc2ccccc2)cc1`, the Inhibition % is -1.67%.
As for `CN1CCCC(CCl)C1.Cl` (stereo not shown), the figure is 4.37%; as for `C=CC(=O)NCc1cnc(N2CCOCC2)c(F)c1`, 13.6%.
As for `O=C(Nc1ccccc1)C1CCN(C2CCOC2=O)CC1` (stereo not shown), the Inhibition % was 6.25%.
With `N#CSc1ccc2c(c1)CCCN2`, the Inhibition % turned out to be 27.6%.
With `C=CC(=O)N1CC(=O)NC2CCCCC21` (stereo not shown), the Inhibition % worked out at 24.2%.
Take `N#Cc1cc(N2CCC(CF)CC2)ccn1`: the Inhibition % amounted to 6.88%.
Take `O=C(CCl)NCC1CCS(=O)(=O)C1` (stereo not shown): the Inhibition % turned out to be 6.97%.
Take `N#Cc1cc2ccccc2[nH]1`: the Inhibition % is given as -0.598%.
As to `CC(O)Cn1c(S)nc2cc(Cl)ccc2c1=O` (stereo not shown), the Inhibition % is 2.03%.
With `C=CC(=O)N1CCC(C2CCCO2)C1` (stereo not shown), the Inhibition % amounted to 2.87%.
`O=C(OCc1ccccc1)N1C[C@@H]2O[C@@H]2C1`: the Inhibition % worked out at 15.2%.
For `CC1(C)C(=O)NC1C1CCN(CC(C)(O)C(F)(F)F)CC1` (stereo not shown), the Inhibition % is 6.49%.
As for `C=CC(=O)NCc1ccc2c(=O)cc[nH]c2c1`, the figure is 18.3%; as for `CC1(C)NC1c1ccccc1` (stereo not shown), 6.12%; as for `N#Cc1cccc(NC(=O)CCCl)c1`, 9.44%.
As for `Cc1ccccc1C(C)NC(=O)Cn1cnc(C#N)n1` (stereo not shown), the figure is 3.4%; as for `CCc1sc(C(=O)NNC(=O)CCl)cc1C`, 13%.
As for `Cc1csc(C2CN(C3CCOC3=O)CCO2)n1` (stereo not shown), the figure is 12.4%.
As to `Nc1cccc(NC(=O)Oc2ccccc2)c1`, the Inhibition % worked out at 39.4%.
Turning to `N#Cc1cc(N2CCCC2)c2ccccc2n1`, the Inhibition % stood at 3.59%.
As for `N#Cc1ncn(CC(=O)N2CCCc3ccccc32)n1`, the Inhibition % was 4.05%.
As for `N#Cc1ncn(CCC23CC4CC(CC(C4)C2)C3)n1`, the figure is 10.6%; as for `CCOc1ccc(S(=O)(=O)n2ccc(C)n2)cc1`, 6.55%; as for `CC1(C)OB(c2ccc(N)c(CO)c2)OC1(C)C`, 7.71%.
Consider `Cc1ccn(CCC2CCOC2=O)c(=O)c1C#N` (stereo not shown), for which the Inhibition % came to 2.39%.
As for `OB(O)c1cccc2c1CCCC2`, the Inhibition % is 9.29%.
As for `O=S(=O)([O-])C=Cc1ccccc1.[Na+]`, the figure is 7.5%.
Regarding `COCCN(C(=O)CCl)C1CCS(=O)(=O)C1` (stereo not shown), the Inhibition % was found to be 9.33%.
As for `O=C(CCl)Nc1cc(C(=O)O)cc(C(=O)O)c1`, the figure is 1.39%; as for `Cc1nn(C(C)C)cc1B1OC(C)(C)C(C)(C)O1`, 3.79%.
As for `C=CC(=O)NC1CCCC1C(=O)NC` (stereo not shown), the figure is 9%.
In the case of `C=CC(=O)N1CCCC(c2nc(N(C)C)no2)C1` (stereo not shown), the Inhibition % turned out to be 10%.
For the compound `Cl.NCC12CC3CC(CC(Cl)(C3)C1)C2`, the Inhibition % was 6.62%.
As for `CCNC(=CC#N)c1ccc(Cl)cc1`, the figure is 13.1%; as for `O=C1NCCc2ccc(S(=O)(=O)OCC(F)(F)F)cc21`, 14.7%.
As to `O=C(CCl)Nc1ccc(-c2nnc3n2CCCCC3)cc1`, the Inhibition % is recorded as 25.1%.
As for `C=CC(=O)N1CSCC1C(=O)N(C)CC` (stereo not shown), the figure is 8.71%; as for `C=CC(=O)N1CCCCC1c1nc2ccccc2o1` (stereo not shown), 7.43%.
As for `Cc1ccc(S(=O)(=O)C(C#N)=Cc2cccnc2)cc1`, the Inhibition % is reported as 1.9%.
As for `Cc1cc(F)ccc1OS(=O)(=O)c1cnn(C)c1`, the Inhibition % was 9.05%.
`CC1(C)OB(C2=CCCCOC2)OC1(C)C`: the Inhibition % is listed as 29.2%.
Consider `CC(C)(C)c1ccc(NC(=O)CCl)cc1`, for which the Inhibition % is 100%.
Turning to `C=CC(=O)NCC1CCSCC1`, the Inhibition % is reported as 2.54%.
Take `N#CC(=Cc1ccsc1)C(=O)NCc1ccco1`: the Inhibition % is 12.4%.
Take `CNC(=O)C(NC(=O)CCl)c1ccccc1` (stereo not shown): the Inhibition % is 8.83%.
As for `N#Cc1ccc(N2CCC(CF)CC2)cn1`, the figure is 5.8%; as for `CC1(C)OB(CC2CC3(CCNCC3)C2)OC1(C)C.Cl`, 0.486%; as for `C=C(C(=O)O)c1ccc(Cl)cc1`, 2.47%.
In the case of `CC1(C)C(=O)NC1c1cccnc1` (stereo not shown), the Inhibition % is listed as 4.25%.
For the compound `C=CC(=O)NCC1CCN1C(C)(C)C` (stereo not shown), the Inhibition % is reported as 23.2%.
As for `Cc1ccc(-c2nc(C#N)c(N(C)C)o2)cc1`, the figure is 5.8%.
For `C=CC(=O)NC1CCN(c2ccc(C(F)(F)F)cc2)C1` (stereo not shown), the Inhibition % was 4.59%.
Take `Cn1nccc1C=CC(=O)N1CCCC(C(F)(F)F)C1` (stereo not shown): the Inhibition % is listed as 4.49%.
In the case of `Cl.ClCCCN1CCN(c2ccccc2)CC1`, the Inhibition % turned out to be 3.99%.
As to `CC1(C)C(=O)NC1C1CCNCC1` (stereo not shown), the Inhibition % was found to be 0.305%.
With `CCn1cnnc1SC1CC(C)OC1=O` (stereo not shown), the Inhibition % was determined as 2.55%.
Take `CCOCCSc1nccnc1C#N`: the Inhibition % came out at 7.01%.
As for `C=CC(=O)N1CCn2c(nc(C)c2C)C1`, the Inhibition % came out at 4.47%.
As for `N#Cc1ncn(CC(=O)Nc2ccc(F)c(F)c2)n1`, the Inhibition % came to 2.19%.
Take `Cc1nc(C#N)c(NCc2ccccc2Cl)o1`: the Inhibition % was 4.52%.
On to `C=CC(=O)N1CCN(CC(O)c2ccco2)CC1` (stereo not shown), for which the Inhibition % is reported as 14.4%.
As to `C=CC(=O)NC[C@@H]1CN(C)C(=O)O1`, the Inhibition % is listed as 11.4%.
As for `C=CC(=O)N1CCN(C2CC3CCC2C3)CC1` (stereo not shown), the figure is 7.14%; as for `CC1(C)OB(c2ccc(C3CCC(=O)N3)cc2)OC1(C)C` (stereo not shown), 6.79%; as for `N#CC(=Cc1cc2cc(F)ccc2o1)C(N)=O`, 6.05%.
As for `CC1CCN(C(=O)C=Cc2cnn(C)c2)C2CCCCC12` (stereo not shown), the figure is -3.16%; as for `Cl.N[C@@H]1CC[C@H](CS(=O)(=O)F)C1` (racemic), 22.9%; as for `CCCC(C#N)NS(=O)(=O)c1ccc(S(=O)(=O)F)cc1` (stereo not shown), 33.3%.
For the compound `C=CC(=O)N1CCN(C(=O)C2CCCO2)CC1` (stereo not shown), the Inhibition % turned out to be 7.33%.
Turning to `C=CC(=O)N1CCCC2(CCSCC2)C1`, the Inhibition % was 13.5%.
On to `Cc1ccc(C(=O)N2CCCC(C3OCCO3)C2)c(O)c1` (stereo not shown), for which the Inhibition % is -1.1%.
On to `COCc1cccc(Nc2ccnc(C#N)c2)c1`, for which the Inhibition % is on record as 5.84%.
For the compound `CC1(C)OB(c2ccnc(F)c2)OC1(C)C`, the Inhibition % came to 2.29%.
Regarding `CC(C)C1NC(=O)C1C(C)C` (stereo not shown), the Inhibition % was determined as 1.77%.
As for `C=CC(=O)N1CCN(Cc2cc(Cl)ccc2OC)CC1`, the Inhibition % is 6.99%.
Consider `C=CC(=O)Nc1cccc(N2CCOCC2)c1`, for which the Inhibition % came out at 11.1%.
Regarding `CCNC(=O)c1ccc2c(=O)n(C)c(S)nc2c1`, the Inhibition % turned out to be 4.44%.
Consider `C=CC(=O)N1CCCN(Cc2ccc(F)cc2)CC1`, for which the Inhibition % was found to be 7.34%.
As for `C=CC(=O)NC1C(C)CCCC1C` (stereo not shown), the figure is 4.93%; as for `O=C(CCl)NCc1cc(F)cc(F)c1`, 3.54%; as for `N#CC=C1C(=O)Nc2ccccc21`, 24.9%.
As for `C=CC(=O)N1CCN(c2ncccn2)CC1`, the figure is 9.58%; as for `CNS(=O)(=O)C=Cc1ccc(Cl)cc1`, -0.344%.
Consider `NS(=O)(=O)c1ccc(CNC(=O)CCl)cc1`, for which the Inhibition % worked out at 1.02%.
As to `CCC(C)(C)C1CCC(NC(=O)CCl)CC1` (stereo not shown), the Inhibition % came to 30.7%.
Consider `N#CCCN(C(=O)CCl)c1ccc(F)cc1`, for which the Inhibition % was 9.41%.
Regarding `C=CC(=O)N1CCCCC1COC(=O)N1CCC(C)CC1` (stereo not shown), the Inhibition % is given as 12%.
With `CN(C)C(=O)c1ccc(B2OC(C)(C)C(C)(C)O2)c(Cl)c1`, the Inhibition % is 2.75%.
As to `CN(CC(=O)Nc1cccc(Cl)c1)C(=O)CCl`, the Inhibition % is on record as 93.8%.
Consider `O=C(CC1C=CS(=O)(=O)C1)NCc1ccccc1Cl` (stereo not shown), for which the Inhibition % worked out at 11.4%.
`CC(C)Cc1nc(C#N)c(NCc2cccnc2)o1`: the Inhibition % was determined as 7.87%.
As for `O=C1COc2ccc(C(=O)CCl)cc2N1`, the Inhibition % was 8.16%.
Consider `C=CC(=O)N1CCOC2(CCCCCC2)C1`, for which the Inhibition % turned out to be 11.5%.
`C=CC(=O)NC(=O)Nc1ccccc1`: the Inhibition % was found to be 2.77%.
Regarding `N#Cc1ncn(CCC(=O)N2CCc3ccccc32)n1`, the Inhibition % is listed as 9.27%.
For the compound `O=C1NC(=O)C(CS)N1` (stereo not shown), the Inhibition % is listed as 84.8%.
As for `N#Cc1ccc(NS(=O)(=O)C=Cc2ccccc2)cc1`, the figure is 10.5%; as for `COc1ccc(C=C(C#N)C(N)=O)cc1`, 7.92%; as for `O=C(CCl)NCCOc1ccc(F)cc1`, 12.3%.
Consider `Cc1c(C=C2COc3ccccc3C2=O)cc(C#N)n1C`, for which the Inhibition % came to 1.53%.
For the compound `O=C(CCl)Nc1ccc2ccccc2c1`, the Inhibition % is on record as 55.8%.
Consider `CC1(C)OB(c2ccc(C3(N)CCCC3)cc2)OC1(C)C.Cl`, for which the Inhibition % came to 2.49%.
Turning to `N#CN(CC(=O)NC1CC1)c1ccc(F)c(Cl)c1`, the Inhibition % stood at 5.92%.
Take `C=CC(=O)N1CCC(c2nc(C3CC3)no2)(C(F)(F)F)C1` (stereo not shown): the Inhibition % is given as 4%.
Turning to `Cc1noc(C)c1S(=O)(=O)Oc1ccc(F)cc1Cl`, the Inhibition % was determined as 7.55%.
Consider `O=C1OCCC1N1CCCN(C(=O)CC2CCCC2)CC1` (stereo not shown), for which the Inhibition % stood at 17.6%.
As for `C=CC(=O)N1CCC(OCc2ccc(F)cc2)CC1`, the figure is 8.91%; as for `CC(C)NC(=O)CN(C)c1ccc(Cl)c(C#N)n1`, 0.332%; as for `Cc1ccc(NC(=O)CCl)c(Br)c1`, 2.41%.
Take `COc1ccc(CNC(=O)CCl)cc1C(=O)O`: the Inhibition % amounted to 21.9%.
Regarding `C=CC(=O)N1CCC(Cc2ncc(C(=O)O)s2)CC1`, the Inhibition % came out at 12.7%.
With `CCOC(=O)C1CCCCN1C(=O)CCl` (stereo not shown), the Inhibition % was 14.2%.
For the compound `CC(C)NC(=O)C(C#N)=Cc1ccnc(O)c1`, the Inhibition % is listed as 2.32%.
As for `CC1(C)OB(c2cnc(C3CC3)cc2C#N)OC1(C)C.Cl`, the figure is 5.51%.
On to `C=CC(=O)N1CCOC(c2ccc(F)c(C)c2)C1` (stereo not shown), for which the Inhibition % came to 4.78%.
Consider `C=CC(=O)N[C@@H]1CCC[C@H]1OC(F)F`, for which the Inhibition % was 15.7%.
Take `C=CC(=O)N1CCOCC1c1c(C)nn(C)c1C` (stereo not shown): the Inhibition % is 12.6%.
On to `CC(C)c1ccc(NC(=O)Cn2cnc(C#N)n2)cc1`, for which the Inhibition % is 22.6%.
Regarding `CC(c1ccc(F)cc1)N(C)C(=O)Cn1cnc(C#N)n1` (stereo not shown), the Inhibition % was determined as 11.3%.
As for `Cl.O=C(CCl)Nc1ccccn1`, the figure is 14.1%.
